The results in this text go back to paper PMC7076015.

Amino acid sequences for entries named in this document (tags omitted). A change or cut given only in a name is not applied to a line headed by its entry.
UniProt A9QM74: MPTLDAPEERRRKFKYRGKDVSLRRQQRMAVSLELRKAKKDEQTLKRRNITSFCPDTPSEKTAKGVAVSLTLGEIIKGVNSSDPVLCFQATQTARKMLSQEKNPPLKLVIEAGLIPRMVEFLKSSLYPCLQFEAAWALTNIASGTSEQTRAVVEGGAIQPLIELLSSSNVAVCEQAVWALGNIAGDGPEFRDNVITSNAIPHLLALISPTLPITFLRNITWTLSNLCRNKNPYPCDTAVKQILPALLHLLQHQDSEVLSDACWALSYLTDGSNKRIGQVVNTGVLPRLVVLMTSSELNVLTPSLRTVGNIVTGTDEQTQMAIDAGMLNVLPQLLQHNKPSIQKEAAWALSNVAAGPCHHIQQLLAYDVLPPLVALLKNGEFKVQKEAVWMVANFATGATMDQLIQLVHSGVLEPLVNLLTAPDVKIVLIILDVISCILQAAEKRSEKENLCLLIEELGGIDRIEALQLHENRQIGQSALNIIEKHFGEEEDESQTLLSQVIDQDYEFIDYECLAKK
UniProt Q14974: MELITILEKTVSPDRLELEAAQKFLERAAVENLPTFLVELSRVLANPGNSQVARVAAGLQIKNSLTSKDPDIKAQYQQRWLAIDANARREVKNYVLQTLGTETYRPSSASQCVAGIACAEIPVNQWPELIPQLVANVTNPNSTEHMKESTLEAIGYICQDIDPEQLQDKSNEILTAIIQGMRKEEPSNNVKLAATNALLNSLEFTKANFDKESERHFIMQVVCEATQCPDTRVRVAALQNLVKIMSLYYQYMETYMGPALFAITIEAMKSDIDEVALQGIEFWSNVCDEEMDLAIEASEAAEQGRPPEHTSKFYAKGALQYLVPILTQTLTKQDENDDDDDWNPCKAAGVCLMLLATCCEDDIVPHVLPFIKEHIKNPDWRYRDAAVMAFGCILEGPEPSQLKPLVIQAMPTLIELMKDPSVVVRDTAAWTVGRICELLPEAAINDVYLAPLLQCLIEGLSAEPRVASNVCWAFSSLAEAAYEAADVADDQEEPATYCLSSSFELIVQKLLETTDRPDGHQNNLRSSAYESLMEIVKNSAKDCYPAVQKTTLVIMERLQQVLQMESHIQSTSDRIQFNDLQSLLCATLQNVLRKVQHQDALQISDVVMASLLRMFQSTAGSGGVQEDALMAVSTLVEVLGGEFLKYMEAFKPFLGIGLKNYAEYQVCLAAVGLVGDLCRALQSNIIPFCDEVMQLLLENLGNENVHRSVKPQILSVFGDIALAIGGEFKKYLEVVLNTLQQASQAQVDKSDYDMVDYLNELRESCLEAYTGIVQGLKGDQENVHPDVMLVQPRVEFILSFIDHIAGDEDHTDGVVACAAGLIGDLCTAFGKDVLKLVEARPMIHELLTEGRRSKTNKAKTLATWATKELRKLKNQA

No constants are given. Whether binding was seen depends on the method and setting. For some of these results: Binding seen in cells or lysates may run through a third protein. Some binding calls cover weakened binding; strength is not graded here. For some of these results: Sequences can lack the tags named with a protein.

Assay [1] addresses T1, GST-GFP-hnRNP R bipartite NLS (UniProt O43390).
T1 sequence: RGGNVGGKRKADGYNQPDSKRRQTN
Put plainly: pull-down; GST-GFP NLS fusions on glutathione resin (1 μg/μl), 35S-methionine-labeled in vitro translated Imp-α isoforms (125,000 cpm); 25 mM Tris pH 7.5, 50 mM NaCl, 5 mM MgCl2, 0.1% NP-40, 3 hours at 4 °C; autoradiography; only the target purified.

Assay [2] deals with MBP-KPNA7 (wild type) (human) (UniProt A9QM74). Nature of the assay: pull-down; MBP fusion proteins on amylose resin, incubated with the indicated concentrations of Imp-β; amylose column buffer, 4 °C; western blot; both purified.
The target of a further assay is MBP-KPNA7(E344Q) (human) (UniProt A9QM74). The description is as above.
The next assay has as its target MBP-KPNA7(P339A) (human) (UniProt A9QM74). The description is as above.

As to “35S-labeled KPNA7 (in vitro translated) (from UniProt A9QM74 1-516) (receptor)”, the binding result in assay [1] is listed as “binds”.

Regarding “Importin β (from UniProt Q14974 1-876) (receptor)”, the binding entry (in assay [2]; with MBP-KPNA7(E344Q) (human); with MBP-KPNA7(P339A) (human)) was “binds” each time.
